Experimental data from the supplement of paper PMC9446081.
The whole screen tested about 39,000 compounds, of which about 220 (0.56%) showed activity. Some of the results follow.

Test system: Escherichia coli K-12 BW25113
Assay: relative growth (OD600 normalised to plate interquartile mean) (fraction); higher = less growth inhibition, active = 0.2 or less
Conditions: 50 µM; LB; incubation time: overnight (16-24 h)
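Note: static incubation at 37 °C against the wild-type strain, values averaged over two biological replicates.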

Question: For `C[C@@H]1CN([C@@H](C)CO)C(=O)Cc2cc(NC(=O)Cc3cn(C)c4ccccc34)ccc2O[C@H]1CN(C)C`, which relative growth is on record?
Answer: Its relative growth is inactive: 0.989.

Question: How did the relative growth turn out when `COc1cccc(S(=O)(=O)Nc2ccc3c(c2)[C@H]2C[C@H](CC(=O)NCCc4ccccc4)O[C@H](CO)[C@H]2O3)c1` was run?
Answer: The relative growth was inactive: 1.01.

Question: For `C[C@@H]1CN([C@H](C)CO)S(=O)(=O)c2ccc(C3=CCCCC3)cc2O[C@@H]1CN(C)S(=O)(=O)c1cn(C)cn1`, which relative growth is on record?
Answer: The relative growth was inactive: 1.02.

Question: `Cc1c(C)n2c3c(=O)[nH]c(=O)n(C)c3nc2n1C` was tested. Which relative growth did it give?
Answer: Its relative growth is inactive: 0.985.

Question: How did the relative growth turn out when `C[C@H]1CN([C@@H](C)CO)C(=O)c2ccccc2-c2ccccc2CO[C@H]1CN(C)S(=O)(=O)c1cn(C)cn1` was run?
Answer: The relative growth was inactive: 1.

Question: `Cc1ccc(NC(=O)c2cc(=O)[nH]c(=O)[nH]2)cc1` was tested. Which relative growth did it give?
Answer: The relative growth was inactive: 1.02.

Question: For `C[C@@H]1CN([C@@H](C)CO)C(=O)Cc2cc(NC(=O)CCCCCC(=O)Nc3ccccc3N)ccc2O[C@@H]1CN(C)Cc1ccc(Oc2ccccc2)cc1`, which relative growth is on record?
Answer: The relative growth was inactive: 1.02.

Question: `C[C@@H]1CN([C@H](C)CO)S(=O)(=O)c2ccc(-c3ccc(C#N)cc3)cc2O[C@H]1CN(C)C(=O)CN(C)C` was tested. Which relative growth did it give?
Answer: Its relative growth is inactive: 0.976.

Question: `C[C@@H]1CN([C@H](C)CO)C(=O)c2cc(NC(=O)CCC(F)(F)F)ccc2O[C@@H](C)CCCCO[C@@H]1CN(C)Cc1ccccc1` was tested. Which relative growth did it give?
Answer: The relative growth was inactive: 0.974.

Question: With `C[C@H](CO)N1C[C@H](C)[C@H](CN(C)Cc2ccc(Cl)c(Cl)c2)Oc2ccc(NC(=O)Cc3cn(C)c4ccccc34)cc2C1=O` as the compound, how does the relative growth read?
Answer: The relative growth was inactive: 1.02.

Question: `COCC(=O)Nc1ccc2c(c1)C(=O)N(C)C[C@H](OC)[C@H](C)CN(Cc1cccc(F)c1)[C@H](C)CO2` was tested. Which relative growth did it give?
Answer: The relative growth was inactive: 1.01.

Question: How did the relative growth turn out when `O=C(CCCCCCC(=O)Nc1ccc([C@H]2C[C@H](c3ccccc3)O[C@H](c3cccc(Oc4ccccc4)c3)O2)cc1)NO` was run?
Answer: Its relative growth is inactive: 1.01.

Question: With `COc1ccc(S(=O)(=O)N(C)C[C@H]2Oc3ccc(NS(=O)(=O)c4c(C)noc4C)cc3CC(=O)N([C@@H](C)CO)C[C@H]2C)cc1` as the compound, how does the relative growth read?
Answer: The relative growth was inactive: 1.02.

Question: How did the relative growth turn out when `COCC(=O)N(C)C[C@@H]1Oc2cc(C#C[C@@H](C)O)ccc2S(=O)(=O)N([C@@H](C)CO)C[C@@H]1C` was run?
Answer: The relative growth was inactive: 0.95.

Question: How did the relative growth turn out when `C[C@H]1CCCCO[C@H](CN(C)C(=O)C2CCCCC2)[C@@H](C)CN([C@@H](C)CO)C(=O)c2cc(NC(=O)Nc3ccccc3)ccc2O1` was run?
Answer: The relative growth was inactive: 1.01.

Question: With `C[C@H](CO)N1C[C@H](C)[C@@H](CN(C)Cc2ccc3c(c2)OCO3)Oc2ccc(NS(=O)(=O)c3cn(C)cn3)cc2C1=O` as the compound, how does the relative growth read?
Answer: Its relative growth is inactive: 0.998.

Question: `COc1ccc2c3c(n(c2c1)C)[C@@H](CO)N(CC1CCOCC1)C[C@]13CN(C1)C(=O)c1cccc(c1)F` was tested. Which relative growth did it give?
Answer: Its relative growth is inactive: 1.02.
